Consider one molecule from paper PMC6395948 (Molecular Cell, 2019).

The target of the assay is T1, McbB (Escherichia coli, UniProt P23184 1-295).
T1 sequence: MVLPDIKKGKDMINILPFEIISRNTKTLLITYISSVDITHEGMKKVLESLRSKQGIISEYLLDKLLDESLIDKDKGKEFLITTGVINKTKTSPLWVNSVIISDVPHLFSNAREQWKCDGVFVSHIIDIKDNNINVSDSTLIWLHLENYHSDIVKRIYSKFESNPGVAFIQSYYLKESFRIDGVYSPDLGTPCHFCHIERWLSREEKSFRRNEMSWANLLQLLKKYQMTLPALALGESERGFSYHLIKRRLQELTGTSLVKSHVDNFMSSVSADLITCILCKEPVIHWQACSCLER
Nature of the assay: crystal structure.

B1: McbC (enzyme, Escherichia coli)
chain: MSKHELSLVEVTHYTDPEVLAIVKDFHVRGNFASLPEFAERTFVSAVPLAHLEKFENKEVLFRPGFSSVINISSSHNFSRERLPSGINFCDKNKLSIRTIEKLLVNAFSSPDPGSVRRPYPSGGALYPIEVFLCRLSENTENWQAGTNVYHYLPLSQALEPVATCNTQSLYRSLSGGDSERLGKPHFALVYCIIFEKALFKYRYRGYRMALMETGSMYQNAVLVADQIGLKNRVWAGYTDSYVAKTMNLDQRTVAPLIVQFFGDVNDDKCLQ
As for B1, the binding result was “binds”.
